Data reported in US20120190659A1, “ANGIOGENESIS INHIBITORS” (Children's Medical Center Corporation, priority 2009, published 2012).
Some of these results come from one statement about several compounds together.

Tests used:
Assay type in all cases: cell-based
[1] = test system: human umbilical vascular endothelial (HUVE) cells; assay: HUVE cell migration, transwell migration assay stimulated by VEGF; conditions: 20 ng/ml VEGF
Protocol: Cell migration is an important aspect of angiogenesis. The effect of the test compounds on HUVE cell motility as stimulated by VEGF was examined using a transwell migration assay. This assay was performed by a similar procedure described in Shimizu A, Mammoto A, Italiano J E Jr, Pravda E, Dudley A C, Ingber D E, Klagsbrun M. “ABL2/ARG tyrosine kinase mediates SEMA3F-induced RhoA inactivation and cytoskeleton collapse in human glioma cells.” J. Biol. Chem. 2008, 283:27230-8, the teaching of which are incorporated by reference.
Briefly, transwell membranes (Coster, N.Y.) were coated with 0.5% gelatin, and cells were seeded (10^5 cells/100 μl) with 0.3% FBS/EBM2. The test compound was added to the both sides of the chamber. Cells were stained with Giemsa solution 16 hours later, and counted in 10 random fields (×400).

[2] = test system: human umbilical vascular endothelial (HUVE) cells; assay: Tube formation of HUVE cells on Matrigel; conditions: 200 nM, 5% FBS/EGM2 media which includes growth factors (bFGF, VEGF, EGF, PDGF)
Protocol: The effect of an agent on tube formation of HUVE cells was determined by a procedure described in Grant D S, Kinsella J L, Kibbey M C, LaFlamme S, Burbelo P D, Goldstein A L, Kleinman H K “Matrigel induces thymosin beta 4 gene in differentiating endothelial cells.” J Cell Sci. 1995, 108:3685-94, the teachings of which are incorporated by reference.
Briefly, HUVE cells (10^4 cells/150 μl of EBM-2) were plated on Matrigel™ (BD biosciences) and incubated for 12-16 hrs in the presence of VEGF (20 ng/ml) and the test compound. Tube formation was assessed in 10 random fields (4×).

[3] = test system: human umbilical vascular endothelial (HUVE) cells; assay: HUVE cell growth (BrdU incorporation)
Protocol: Incorporation of 5-bromo-2′-deoxyuridibe (BrdU) is a common method used to detect the DNA replication in actively proliferating cells. Inhibition of cell growth is inferred by the decrease of BrdU incorporation into the cells. […] The assay can be preformed in the presence or absence of growth factors such as VEGF, bFGF and PDGF. This assay was performed by a procedure described in Huang S, Chen C S, Ingber D E. “Control of cyclin D1, p 27(Kip1), and cell cycle progression in human capillary endothelial cells by cell shape and cytoskeletal tension.” Mol Biol Cell. 1998, 9:3179-93, the teachings of which are incorporated herein by reference.

CN(C)[C@@H]1CC[C@H]2[C@@H](CC[C@@H]3[C@@H]2CC[C@]2(C)C(c4ccc5ccncc5c4)=CC[C@@H]32)C1 [EJC-1]
HUVE cell migration ([1]; 1 μM (1000 nM) test compound): inhibited | tube formation [2]: did not inhibit

CN(C)[C@H]1CC[C@H]2[C@@H](CC[C@@H]3[C@@H]2CC[C@]2(C)C(c4ccc5ccncc5c4)=CC[C@@H]32)C1 [EJC-2]
HUVE cell migration ([1]; 1 μM (1000 nM) test compound): inhibited | tube formation [2]: did not inhibit

CN(C)[C@H]1CC[C@H]2[C@@H](CC[C@@H]3[C@@H]2CC[C@]2(C)[C@@H](c4ccc5ccncc5c4)CC[C@@H]32)C1 [EJC-07]
tube formation [2]: did not inhibit

CN1CCc2ccc([C@H]3CC[C@H]4[C@@H]5CC[C@H]6C[C@@H](N(C)C)CC[C@@H]6[C@H]5CC[C@]34C)cc2C1 [EJC-8]
HUVE cell migration ([1]; 50 nM test compound): inhibited | tube formation [2]: did not inhibit

CN1CCc2ccc(C3=CC[C@H]4[C@@H]5CC[C@H]6C[C@@H](N(C)C)CC[C@@H]6[C@H]5CC[C@]34C)cc2C1 [EJC-9]
tube formation [2]: did not inhibit

CN(C)[C@H]1CC[C@H]2[C@@H](CC[C@@H]3[C@@H]2CC[C@]2(C)C(c4ccc5cnccc5c4)=CC[C@@H]32)C1 [EJC-10]
HUVE cell migration ([1]; 50 nM test compound): inhibited | tube formation [2]: did not inhibit

CN(C)[C@H]1CC[C@H]2[C@@H](CC[C@@H]3[C@@H]2CC[C@]2(C)C(c4cccc5cnccc45)=CC[C@@H]32)C1 [EJC-12]
HUVE cell migration ([1]; 50 nM test compound): inhibited

CN(C)[C@H]1CC[C@H]2[C@@H](CC[C@@H]3[C@@H]2CC[C@]2(C)C(c4cccnc4)=CC[C@@H]32)C1 [EJC-14]
HUVE cell migration ([1]; 50 nM test compound): inhibited

CN(C)[C@H]1CC[C@@]2(C)[C@@H](CC[C@@H]3[C@@H]2CC[C@]2(C)C(c4ccc5ccncc5c4)=CC[C@@H]32)C1 [EJC-16]
HUVE cell migration ([1]; 200 nM test compound): inhibit | cell growth induced by VEGF ([3]; 200 nM, VEGF 20 ng/ml): did not inhibit | cell growth induced by VEGF ([3]; 1000 nM): by half

CN(C)[C@H]1CC[C@@]2(C)[C@@H](CC[C@@H]3[C@@H]2CC[C@]2(C)C(c4ccc5cnccc5c4)=CC[C@@H]32)C1 [EJC-17]
HUVE cell migration ([1]; 200 nM test compound): inhibit | cell growth induced by VEGF ([3]; 200 nM, VEGF 20 ng/ml): did not inhibit | cell growth induced by VEGF ([3]; 1000 nM): by half

CN(C)[C@H]1CC[C@@]2(C)[C@@H](CC[C@@H]3[C@@H]2CC[C@]2(C)C(c4cccc5cnccc45)=CC[C@@H]32)C1 [EJC-18]
HUVE cell migration ([1]; 200 nM test compound): inhibit | cell growth induced by VEGF ([3]; 200 nM, VEGF 20 ng/ml): did not inhibit | cell growth induced by VEGF ([3]; 1000 nM): by half

CN(C)[C@H]1CC[C@@]2(C)[C@@H](CC[C@@H]3[C@@H]2CC[C@]2(C)C(c4cccnc4)=CC[C@@H]32)C1 [EJC-19]
HUVE cell migration ([1]; 200 nM test compound): inhibit | cell growth induced by VEGF ([3]; 200 nM, VEGF 20 ng/ml): did not inhibit | cell growth induced by VEGF ([3]; 1000 nM): by half

CN(C)[C@H]1CC[C@H]2[C@@H](CC[C@@H]3[C@@H]2CC[C@]2(C)[C@@H](c4ccc5cnccc5c4)CC[C@@H]32)C1 [EJC-20]
HUVE cell migration ([1]; 200 nM test compound): inhibit | cell growth induced by VEGF ([3]; 200 nM, VEGF 20 ng/ml): did not inhibit | cell growth induced by VEGF ([3]; 1000 nM): by half
